Reference: the supplement of paper PMC8728848
Some of the results follow.

Legend:
Assay in all cases: glycan array binding signal (z-score within array); higher = stronger binding
Details in all cases: glycan notation: IUPAC condensed, linker removed
[1] = target: Neu5Ac(a2-3)Gal(b1-4)GlcNAc(b1-2)Man
Outline: (§1)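 Negative Z-scores can be read as non-binding. The Z-score is calculated within each array and then averaged across arrays of one protein sequence at different concentrations or buffers and across linkers. Arrays, 3228 in all, were curated from the Consortium for Functional Glycomics database and kept only where the protein sequence was available.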

[2] = target: Neu5Ac(a2-3)Gal(b1-4)GlcNAc(b1-2)Man(a1-3)[GlcNAc(b1-2)Man(b1-4)GlcNAc(b1-2)Man(a1-6)]Man(b1-4)GlcNAc(b1-4)GlcNAc
Outline: as §1

[3] = target: Neu5Ac(a2-3)Gal(b1-4)GlcNAc(b1-2)Man(a1-3)[GlcNAc(b1-4)][Neu5Ac(a2-3)Gal(b1-4)GlcNAc(b1-2)Man(a1-6)]Man(b1-4)GlcNAc(b1-4)GlcNAc
Outline: as §1

[4] = target: Neu5Ac(a2-3)Gal(b1-4)GlcNAc(b1-2)Man(a1-3)[Neu5Ac(a2-3)Gal(b1-4)GlcNAc(b1-2)Man(a1-6)]Man(b1-4)GlcNAc(b1-4)GlcNAc
Outline: as §1

[5] = target: Neu5Ac(a2-3)Gal(b1-4)GlcNAc(b1-2)Man(a1-3)[Neu5Ac(a2-3)Gal(b1-4)GlcNAc(b1-2)Man(a1-6)]Man(b1-4)GlcNAc(b1-4)[Fuc(a1-6)]GlcNAc
Outline: as §1

[6] = target: Neu5Ac(a2-3)Gal(b1-4)GlcNAc(b1-2)Man(a1-3)[Neu5Ac(a2-6)Gal(b1-4)GlcNAc(b1-2)Man(a1-6)]Man(b1-4)GlcNAc(b1-4)GlcNAc
Outline: as §1

[7] = target: Neu5Ac(a2-3)Gal(b1-4)GlcNAc(b1-2)[Neu5Ac(a2-3)Gal(b1-4)GlcNAc(b1-4)]Man(a1-3)[GlcNAc(b1-4)][Neu5Ac(a2-3)Gal(b1-4)GlcNAc(b1-2)[Neu5Ac(a2-3)Gal(b1-4)GlcNAc(b1-6)]Man(a1-6)]Man(b1-4)GlcNAc(b1-4)GlcNAc
Outline: as §1

[8] = target: Neu5Ac(a2-3)Gal(b1-4)GlcNAc(b1-2)[Neu5Ac(a2-3)Gal(b1-4)GlcNAc(b1-4)]Man(a1-3)[GlcNAc(b1-4)][Neu5Ac(a2-3)Gal(b1-4)GlcNAc(b1-4)Man(a1-6)]Man(b1-4)GlcNAc(b1-4)GlcNAc
Outline: as §1

[9] = target: Neu5Ac(a2-3)Gal(b1-4)GlcNAc(b1-2)[Neu5Ac(a2-3)Gal(b1-4)GlcNAc(b1-6)]Man(a1-6)[Neu5Ac(a2-3)Gal(b1-4)GlcNAc(b1-2)Man(a1-3)]Man(b1-4)GlcNAc(b1-4)GlcNAc
Outline: as §1

[10] = target: Neu5Ac(a2-3)Gal(b1-4)GlcNAc(b1-2)[Neu5Ac(a2-3)Gal(b1-4)GlcNAc(b1-6)]Man(a1-6)[Neu5Ac(a2-3)Gal(b1-4)GlcNAc(b1-2)Man(a1-3)][GlcNAc(b1-4)]Man(b1-4)GlcNAc(b1-4)GlcNAc
Outline: as §1

[11] = target: Neu5Ac(a2-3)Gal(b1-4)GlcNAc(b1-3)Gal
Outline: as §1

[12] = target: Neu5Ac(a2-3)Gal(b1-4)GlcNAc(b1-3)Gal(b1-3)GlcNAc
Outline: as §1

[13] = target: Neu5Ac(a2-3)Gal(b1-4)GlcNAc(b1-3)Gal(b1-4)GlcNAc
Outline: as §1

[14] = target: Neu5Ac(a2-3)Gal(b1-4)GlcNAc(b1-3)Gal(b1-4)GlcNAc(b1-2)Man(a1-3)[Neu5Ac(a2-3)Gal(b1-4)GlcNAc(b1-3)Gal(b1-4)GlcNAc(b1-2)Man(a1-6)]Man(b1-4)GlcNAc(b1-4)GlcNAc
Outline: as §1

[15] = target: Neu5Ac(a2-3)Gal(b1-4)GlcNAc(b1-3)Gal(b1-4)GlcNAc(b1-3)Gal(b1-4)GlcNAc
Outline: as §1

[16] = target: Neu5Ac(a2-3)Gal(b1-4)GlcNAc(b1-3)Gal(b1-4)GlcNAc(b1-3)Gal(b1-4)GlcNAc(b1-2)Man(a1-3)[Neu5Ac(a2-3)Gal(b1-4)GlcNAc(b1-3)Gal(b1-4)GlcNAc(b1-3)Gal(b1-4)GlcNAc(b1-2)Man(a1-6)]GalNAc
Outline: as §1

[17] = target: Neu5Ac(a2-3)Gal(b1-4)GlcNAc(b1-3)Gal(b1-4)GlcNAc(b1-3)GalNAc
Outline: as §1

[18] = target: Neu5Ac(a2-3)Gal(b1-4)GlcNAc(b1-3)Gal(b1-4)GlcNAc(b1-3)[Neu5Ac(a2-3)Gal(b1-4)GlcNAc(b1-3)Gal(b1-4)GlcNAc(b1-6)]GalNAc
Outline: as §1

[19] = target: Neu5Ac(a2-3)Gal(b1-4)GlcNAc(b1-3)Gal(b1-4)GlcNAc(b1-6)[Gal(b1-3)]GalNAc
Outline: as §1

[20] = target: Neu5Ac(a2-3)Gal(b1-4)GlcNAc(b1-3)Gal(b1-4)[Fuc(a1-3)]GlcNAc
Outline: as §1

[21] = target: Neu5Ac(a2-3)Gal(b1-4)GlcNAc(b1-3)GalNAc
Outline: as §1

[22] = target: Neu5Ac(a2-3)Gal(b1-4)GlcNAc(b1-3)[Neu5Ac(a2-3)Gal(b1-4)GlcNAc(b1-6)]GalNAc
Outline: as §1

[23] = target: Neu5Ac(a2-3)Gal(b1-4)GlcNAc(b1-6)GalNAc
Outline: as §1

[24] = target: Neu5Ac(a2-3)Gal(b1-4)GlcNAc(b1-6)[Gal(b1-3)]GalNAc
Outline: as §1

[25] = target: Neu5Ac(a2-3)Gal(b1-4)GlcNAc(b1-6)[Neu5Ac(a2-3)Gal(b1-3)]GalNAc
Outline: as §1

[26] = target: Neu5Ac(a2-3)Gal(b1-4)GlcNAc6S
Outline: as §1

[27] = target: Neu5Ac(a2-3)Gal(b1-4)[Fuc(a1-3)]GlcNAc
Outline: as §1

[28] = target: Neu5Ac(a2-3)Gal(b1-4)[Fuc(a1-3)]GlcNAc(b1-2)Man
Outline: as §1

[29] = target: Neu5Ac(a2-3)Gal(b1-4)[Fuc(a1-3)]GlcNAc(b1-3)Gal
Outline: as §1

[30] = target: Neu5Ac(a2-3)Gal(b1-4)[Fuc(a1-3)]GlcNAc(b1-3)Gal(b1-4)GlcNAc
Outline: as §1

[31] = target: Neu5Ac(a2-3)Gal(b1-4)[Fuc(a1-3)]GlcNAc(b1-3)Gal(b1-4)[Fuc(a1-3)]GlcNAc(b1-3)Gal(b1-4)[Fuc(a1-3)]GlcNAc
Outline: as §1

[32] = target: Neu5Ac(a2-3)Gal(b1-4)[Fuc(a1-3)]GlcNAc(b1-3)GalNAc
Outline: as §1

[33] = target: Neu5Ac(a2-3)Gal(b1-4)[Fuc(a1-3)]GlcNAc(b1-6)[Gal(b1-3)]GalNAc
Outline: as §1

[34] = target: Neu5Ac(a2-3)Gal(b1-4)[Fuc(a1-3)]GlcNAc(b1-6)[Neu5Ac(a2-3)Gal(b1-3)]GalNAc
Outline: as §1

[35] = target: Neu5Ac(a2-3)Gal(b1-4)[Fuc(a1-3)]GlcNAc6S
Outline: as §1

[36] = target: Neu5Ac(a2-3)Gal6S(b1-4)GlcNAc
Outline: as §1

[37] = target: Neu5Ac(a2-3)Gal6S(b1-4)[Fuc(a1-3)]GlcNAc
Outline: as §1

Neu5Ac(a2-3)GalNAc = target: Neu5Ac(a2-3)GalNAc
Outline: as §1

B1: Gal 8 (Homo sapiens) (protein)
chain: MLSLNNLQNIIYNPVIPYVGTIPDQLDPGTLIVICGHVPSDADRFQVDLQNGSSVKPRADVAFHFNPRFKRAGCIVCNTLINEKWGREEITYDTPFKREKSFEIVIMVLKDKFQVAVNGKHTLLYGHRIGPEKIDTLGIYGKVNIHSIGFSFSSDLQSTQASSLELTEISRENVPKSGTPQLQTVSPSWDLQGHGSETFCSVLWTRVFLEIAFCRPIGLTVASFQSLPFAARLNTPMGPGRTVVVKGEVNANAKSFNVDLLAGKSKDIALHLNPRLNIKAFVRNSFLQESWGEEERNITSFPFSPGMYFEMIIYCDVREFKVAVNGVHSLEYKHRFKELSSIDTLEINGDIHLLEVRSW
B1 was tested, and the “glycan array binding signal (z-score)” value [1] was -0.352, the “glycan array binding signal (z-score)” value [2] was -0.329 and the “glycan array binding signal (z-score)” value [3] was -0.354. The “glycan array binding signal (z-score)” value [4] was -0.581, the “glycan array binding signal (z-score)” value [5] was -0.325 and the “glycan array binding signal (z-score)” value [6] was -0.33. The “glycan array binding signal (z-score)” value [7] was -0.267, the “glycan array binding signal (z-score)” value [8] was -0.314 and the “glycan array binding signal (z-score)” value [9] was -0.098. The “glycan array binding signal (z-score)” value [10] was -0.329, the “glycan array binding signal (z-score)” value [11] was -0.345 and the “glycan array binding signal (z-score)” value [12] was -0.191. For the same binder, the “glycan array binding signal (z-score)” value [13] was -0.192, the “glycan array binding signal (z-score)” value [14] was 0.079 and the “glycan array binding signal (z-score)” value [15] was 2.12. For the same binder, the “glycan array binding signal (z-score)” value [16] was -0.239, the “glycan array binding signal (z-score)” value [17] was -0.305 and the “glycan array binding signal (z-score)” value [18] was 0.06. The “glycan array binding signal (z-score)” value [19] was -0.289, the “glycan array binding signal (z-score)” value [20] was 0.272 and the “glycan array binding signal (z-score)” value [21] was -0.35. For the same binder, the “glycan array binding signal (z-score)” value [22] was -0.345, the “glycan array binding signal (z-score)” value [23] was -0.349 and the “glycan array binding signal (z-score)” value [24] was -0.143. The “glycan array binding signal (z-score)” value [25] was -0.097, the “glycan array binding signal (z-score)” value [26] was 0.86 and the “glycan array binding signal (z-score)” value [27] was -0.22. The “glycan array binding signal (z-score)” value [28] was -0.357, the “glycan array binding signal (z-score)” value [29] was -0.359 and the “glycan array binding signal (z-score)” value [30] was -0.361. For the same binder, the “glycan array binding signal (z-score)” value [31] was -0.384, the “glycan array binding signal (z-score)” value [32] was -0.353 and the “glycan array binding signal (z-score)” value [33] was -0.347. For the same binder, the “glycan array binding signal (z-score)” value [34] was -0.349, the “glycan array binding signal (z-score)” value [35] was -0.261 and the “glycan array binding signal (z-score)” value [36] was -0.348. The “glycan array binding signal (z-score)” value [37] was -0.386 and the “glycan array binding signal (z-score)” value (Neu5Ac(a2-3)GalNAc) was -0.117.
